Stoichiometry N data for one substance are collected here from PMC2902519.

The target of the experiment is FLAG-tagged wild type optineurin (FLAG-OPTNWT) (human) (UniProt Q96CV9). The experiment can be described thus: native gel or EMSA; native blue gel electrophoresis, data not shown; 420 kDa homo-hexamer. In general terms: A gel shift assay detects complexes by their altered migration in electrophoresis.

For orientation: stoichiometry N means the number of molecules, sites or subunits per partner or assembly. With “FLAG-tagged wild type optineurin (FLAG-OPTNWT) (a stretch of the chain, chain not printed) (natural protein; other documents disagree on this pair)”, the stoichiometry N is 6.
